PMC4336329 (PLoS ONE, 2015)
Among all 310,000 compounds or so, about 2,200 (0.71%) showed an effect of 50% or more. Effects have a minus sign here. This is one part of the list.

These compounds were tested against human ether-à-go-go-related gene (hERG) potassium channel (human, UniProt Q12809) (assay: primary screen, population patch clamp on CHO cells stably expressing hERG).
Sequence of human ether-à-go-go-related gene (hERG) potassium channel (Q12809 whole entry, looked up): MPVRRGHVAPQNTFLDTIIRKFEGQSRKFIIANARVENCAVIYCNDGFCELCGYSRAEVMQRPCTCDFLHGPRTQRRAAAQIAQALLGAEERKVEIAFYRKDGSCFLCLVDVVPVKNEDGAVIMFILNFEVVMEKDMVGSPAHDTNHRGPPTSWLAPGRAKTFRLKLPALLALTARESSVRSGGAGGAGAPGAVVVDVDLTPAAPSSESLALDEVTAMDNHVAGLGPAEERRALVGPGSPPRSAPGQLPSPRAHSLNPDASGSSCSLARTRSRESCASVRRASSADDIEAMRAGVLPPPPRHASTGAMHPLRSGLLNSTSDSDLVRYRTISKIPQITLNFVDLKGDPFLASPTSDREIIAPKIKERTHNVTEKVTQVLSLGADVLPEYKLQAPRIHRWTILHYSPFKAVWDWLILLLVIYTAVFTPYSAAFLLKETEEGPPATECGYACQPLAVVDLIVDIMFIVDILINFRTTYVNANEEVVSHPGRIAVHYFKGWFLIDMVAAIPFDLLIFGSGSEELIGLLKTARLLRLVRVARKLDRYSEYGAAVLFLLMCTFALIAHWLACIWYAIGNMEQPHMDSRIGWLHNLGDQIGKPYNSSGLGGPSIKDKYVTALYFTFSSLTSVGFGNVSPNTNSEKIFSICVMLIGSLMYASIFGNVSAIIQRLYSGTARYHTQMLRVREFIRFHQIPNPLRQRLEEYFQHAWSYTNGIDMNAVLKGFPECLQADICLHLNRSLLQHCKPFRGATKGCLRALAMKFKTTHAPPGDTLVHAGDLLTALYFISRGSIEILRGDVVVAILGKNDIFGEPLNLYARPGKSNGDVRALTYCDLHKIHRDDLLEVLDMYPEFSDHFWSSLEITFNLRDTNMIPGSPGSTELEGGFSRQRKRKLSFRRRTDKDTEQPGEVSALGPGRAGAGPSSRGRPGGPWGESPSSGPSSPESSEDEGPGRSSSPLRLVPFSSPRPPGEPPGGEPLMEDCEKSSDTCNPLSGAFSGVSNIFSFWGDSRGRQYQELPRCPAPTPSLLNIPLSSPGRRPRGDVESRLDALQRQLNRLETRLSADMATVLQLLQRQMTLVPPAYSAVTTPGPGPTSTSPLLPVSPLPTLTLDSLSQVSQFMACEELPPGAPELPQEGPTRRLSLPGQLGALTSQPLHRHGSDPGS

Compared with `COC(=O)c1sc(-c2ccc(Cl)cc2)cc1NC(=O)c1ccccc1C(=O)O`, `COC(=O)c1ccc(NC(=S)NNC(=O)c2ccccc2)cc1` is higher in “hERG current change (%, negative = inhibition) at 1uM” value: 0.336% for the first, 9.98% for the second.

Going from `O=C(N/N=C/c1ccc(Cl)c([N+](=O)[O-])c1)C1CC1` to `O=[N+]([O-])c1ccc(Cl)cc1N1CCOCC1`, the “hERG current change (%, negative = inhibition) at 1uM” value rises from 7.95% to 11.2%.

First: Cc1ccc(S(=O)(=O)N(C)c2c(C)ccc(S(N)(=O)=O)c2C)cc1
Second: CCOc1ccc(S(=O)(=O)NCc2ccc3c(c2)OCO3)cc1C
The “hERG current change (%, negative = inhibition) at 1uM” value of the first is lower: 5.56% for the first, 13.5% for the second.

Compared with `COc1cc(/C=N/n2c(-c3ccccc3)n[nH]c2=S)cc(OC)c1OC`, `Cc1ccc(OCc2n[nH]c(=S)n2Cc2ccccc2)cc1` is lower in “hERG current change (%, negative = inhibition) at 1uM” value: 7.92% for the first, 2.05% for the second.

First: CC1CC1C(=O)OCC(=O)N(C)c1c(N)n(Cc2ccccc2)c(=O)[nH]c1=O (stereo not drawn)
Second: Cc1cc(C)c(C(=O)/C=C/C=C/c2ccccc2)c(=O)[nH]1
The “hERG current change (%, negative = inhibition) at 1uM” value of the first is lower: -1.73% for the first, 16.4% for the second.

First: CCOC(=O)CS(=O)(=O)c1ccc2ccccc2c1
Second: Cc1cc(C(C)(C)C)cc(C)c1C[n+]1ccc2ccccc2c1.[Cl-]
The “hERG current change (%, negative = inhibition) at 1uM” value of the first is lower: 1.69% for the first, 5.31% for the second.

Compared with `NC(=O)c1ccsc1NC(=O)COC(=O)Cc1cccc2ccccc12`, `COc1cccc(NC(=O)Cn2nnc(C(=O)NCc3cccs3)c2N)c1` is lower in “hERG current change (%, negative = inhibition) at 1uM” value: 16.2% for the first, 4.61% for the second.

First: COc1ccccc1CC(NC(C)=O)C(=O)N1CCN(C(=O)c2cccs2)CC1 (stereo not drawn)
Second: CCOC(=O)N1CCN(C(=O)CN2C(=O)c3ccccc3S2(=O)=O)CC1
The “hERG current change (%, negative = inhibition) at 1uM” value of the first is higher: 9.62% for the first, 9.15% for the second.

Going from `Cc1nc2sc(C(=O)OC(C)C)c(N)c2c(C)c1C` to `Br.CC(=O)Nc1nc(C)c(-c2csc(Nc3cccc(C(C)=O)c3)n2)s1`, the “hERG current change (%, negative = inhibition) at 1uM” value falls from 9.47% to 4.57%.

Compared with `CCc1nnc(NS(=O)(=O)c2ccc(NC(=O)c3cccc(OC)c3)cc2)s1`, `CCc1nnc(NS(=O)(=O)c2ccc(NC(=S)NC(=O)c3cccs3)cc2)s1` is higher in “hERG current change (%, negative = inhibition) at 1uM” value: 13.2% for the first, 14.7% for the second.

Compared with `O=C1CC(NCC2CCCO2)C(=O)N1c1ccc(Cl)cc1` (stereo not drawn), `O=C(COC(=O)c1cccc(S(=O)(=O)N2CCN(c3ccc(F)cc3)CC2)c1)NCC1CCCO1` (stereo not drawn) is lower in “hERG current change (%, negative = inhibition) at 1uM” value: 13.6% for the first, 6.46% for the second.

Going from `CC1Cn2c(nnc2-c2cc3ccccc3cc2O)S1` (stereo not drawn) to `Cc1nnc(NC(=O)CCCN2C(=O)c3ccccc3C2=O)s1`, the “hERG current change (%, negative = inhibition) at 1uM” value falls from 18.7% to 11.3%.

Compared with `COC(CNC(=O)CN1C(=O)COc2ccc(S(=O)(=O)N3CCOCC3)cc21)OC`, `COc1ccc(C(=O)N2CCCC2)cc1S(=O)(=O)N1CCOCC1` is lower in “hERG current change (%, negative = inhibition) at 1uM” value: 19% for the first, 1.63% for the second.

Going from `CC12CCC(=O)N1C(C(=O)NCCN1C(=O)S/C(=C\c3ccccc3F)C1=O)CS2` (stereo not drawn) to `CCc1ccccc1N1CC(C(=O)Nc2nccs2)CC1=O` (stereo not drawn), the “hERG current change (%, negative = inhibition) at 1uM” value rises from -4.15% to 8.14%.

Compared with `Clc1cccc(N/N=C/c2ccc(N3CCOCC3)cc2)c1`, `Cc1cccc(C)c1NC(=O)Cn1nnc(-c2ccc(N3CCOCC3)cc2)n1` is lower in “hERG current change (%, negative = inhibition) at 1uM” value: 4.07% for the first, -15.4% for the second.

First: CCC(=NCc1cc(OC)cc(OC)c1)c1c(O)n(C)c(=O)n(C)c1=O
Second: COc1ccc(NS(=O)(=O)c2c(C)n(C)c(=O)n(C)c2=O)cc1
The “hERG current change (%, negative = inhibition) at 1uM” value of the first is lower: 2.7% for the first, 12% for the second.

First: O=C(c1ccco1)N1CCn2c1nc1ccccc12
Second: O=C(CSc1nc2ccccc2o1)NCc1ccco1
The “hERG current change (%, negative = inhibition) at 1uM” value of the first is lower: 2.94% for the first, 5.7% for the second.

Going from `COC(=O)c1ccc(-c2nc(CN3CCC(C(=O)N4CCOCC4)CC3)c(C)o2)cc1` to `COc1ccc(CN2CCN(C(=O)C3CCC(CNS(=O)(=O)c4ccc(C)cc4)CC3)CC2)c(OC)c1OC` (stereo not drawn), the “hERG current change (%, negative = inhibition) at 1uM” value rises from 5.85% to 10.5%.

Going from `COc1ccc(CNS(=O)(=O)c2ccc3c(c2)N(C(C)=O)CC(C)S3)cc1` (stereo not drawn) to `COc1ccc(-c2cc(C(=O)NCCCn3ccnc3)no2)cc1`, the “hERG current change (%, negative = inhibition) at 1uM” value rises from 4.98% to 5.65%.

Going from `CC1OC2C(OC1C)N(S(C)(=O)=O)CCN2S(C)(=O)=O` (stereo not drawn) to `CC(=O)c1cccc(NS(=O)(=O)N2CCCCC2)c1`, the “hERG current change (%, negative = inhibition) at 1uM” value rises from 10.4% to 13.9%.

Compared with `Cc1ccc(N=C2NC(=O)/C(=C/c3cn(C)c4ccccc34)S2)cc1C`, `COC(=O)c1ccc(NS(=O)(=O)NC(=O)c2cn(C)c3ccccc23)cc1` is lower in “hERG current change (%, negative = inhibition) at 1uM” value: 6.34% for the first, 2.57% for the second.

First: CCCCC(=O)Nc1nnc(SCC(=O)NC2CC2)s1
Second: Cc1ccccc1-c1nc(CS(=O)CC(=O)NC2CC2)c(C)o1 (stereo not drawn)
The “hERG current change (%, negative = inhibition) at 1uM” value of the first is lower: 13.2% for the first, 17% for the second.

Going from `O=C(CCn1nc(-c2ccccc2)c2ccccc2c1=O)N1CCN(c2ccccc2)CC1` to `Cc1[nH]c2ccccc2c1C(c1ccncc1)N1CCN(c2ccccc2F)CC1` (stereo not drawn), the “hERG current change (%, negative = inhibition) at 1uM” value rises from 3.09% to 3.88%.

Going from `CCOC(=O)c1sc(C)c(C(=O)NCCCN2CCOCC2)c1N` to `Cn1c(=O)c2c(SCCN3CCOCC3)nc(C3CCCC3)nc2n(C)c1=O`, the “hERG current change (%, negative = inhibition) at 1uM” value rises from 7.17% to 7.4%.

First: Cc1cc(C)c(C)c(OCc2nc(-c3cccnc3)no2)c1
Second: Cc1ccc(CNC(=O)c2cccnc2Cl)cc1
The “hERG current change (%, negative = inhibition) at 1uM” value of the first is lower: -5.02% for the first, 12% for the second.

First: Cc1[nH]n2c(=O)c3c(nc2c1-c1ccc(F)cc1)CCCC3
Second: CC(=O)c1cccc(NC(=O)c2ccc3c(c2)CCCC3)c1
The “hERG current change (%, negative = inhibition) at 1uM” value of the first is higher: 14.2% for the first, 10.3% for the second.

First: CCN(CC)C(=O)c1ccc(NC(=O)CCCSc2ccccc2)cc1
Second: CN(CCOc1ccccc1)CC(=O)Nc1ccc(S(=O)(=O)N2CCCC2)cc1
The “hERG current change (%, negative = inhibition) at 1uM” value of the first is higher: 8.2% for the first, 6.97% for the second.

First: CCC(C)NC(=O)c1nn(C)c(=O)c2ccccc12 (stereo not drawn)
Second: C[C@H](NC(=O)[C@H]1N2C(=O)c3ccccc3C2SC1(C)C)C(=O)N1CCC[C@H]1CO (stereo partly drawn)
The “hERG current change (%, negative = inhibition) at 1uM” value of the first is lower: 8.61% for the first, 10.3% for the second.

First: NS(=O)(=O)c1ccc(NC(=S)NCc2cccc(Cl)c2)cc1
Second: O=C(NCC1OCCc2ccccc21)c1ccc(NC(=O)c2ccc(Cl)cc2)cc1 (stereo not drawn)
The “hERG current change (%, negative = inhibition) at 1uM” value of the first is higher: 8.6% for the first, -5.81% for the second.

Compared with `CCCCOc1ccc(C)cc1CN(CCO)CCO.Cl`, `CCCOc1ccc(/C(O)=C2/C(=O)C(=O)N(CCN(C)C)C2c2ccc(OC)c(OC)c2)cc1` (stereo not drawn) is higher in “hERG current change (%, negative = inhibition) at 1uM” value: 13.2% for the first, 14.9% for the second.

Going from `O=c1[nH]c2ccccc2n2c(C(F)(F)F)nnc12` to `Cn1c(=NC(=O)C2=NNC(=O)CC2)sc2ccccc21`, the “hERG current change (%, negative = inhibition) at 1uM” value rises from 12.1% to 15.7%.

Compared with `COc1cccc(/C=N/NC(=O)c2cc3cc([N+](=O)[O-])ccc3s2)c1O`, `N#C/C(=C(/O)CO/N=C/c1ccccc1Cl)c1nc2ccccc2[nH]1` is higher in “hERG current change (%, negative = inhibition) at 1uM” value: 6.84% for the first, 12.2% for the second.

First: Cn1cnnc1SCCCN1C(=O)c2cccc3cccc(c23)C1=O
Second: CCn1c(SCC(=O)Nc2cccc(C)n2)nc2c1c(=O)n(C)c(=O)n2C
The “hERG current change (%, negative = inhibition) at 1uM” value of the first is lower: -10.3% for the first, 4.52% for the second.

Going from `CCOc1ccc(-c2cc(N3C(=O)Nc4ccccc4N3O)on2)cc1` to `CN1CCN(c2ccccc2NC(=S)NC(=O)c2cc3ccccc3o2)CC1`, the “hERG current change (%, negative = inhibition) at 1uM” value falls from 21.3% to -1.87%.

First: CCc1ccc(N(C(=O)c2csnn2)C(C(=O)NC(C)(C)C)c2ccccn2)cc1 (stereo not drawn)
Second: CC(C)C(NC(=O)c1ccc(C(C)(C)C)cc1)C(=O)NCc1ccccn1 (stereo not drawn)
The “hERG current change (%, negative = inhibition) at 1uM” value of the first is lower: -17.4% for the first, 12.4% for the second.

Compared with `CNC(=O)c1ccccc1Nc1ccc(SC(F)F)cc1`, `COC(=O)c1ccccc1NC=C1C(=O)OC2(CCCCC2)OC1=O` is lower in “hERG current change (%, negative = inhibition) at 1uM” value: 15.1% for the first, 9.35% for the second.

Compared with `Cc1ccc(NC(=S)N(CCCN2CCN(C)CC2)Cc2cccs2)cc1`, `S=C(c1cn(Cc2ccccc2)c2ccccc12)N1CCOCC1` is higher in “hERG current change (%, negative = inhibition) at 1uM” value: -4.5% for the first, 8.22% for the second.

Compared with `CC(O)CNc1nc2c(c(=O)n(Cc3ccc(Br)cc3)c(=O)n2C)n1C` (stereo not drawn), `CNC(=O)c1c(NC(=O)c2cccc(C)c2)sc2c1CCC2` is higher in “hERG current change (%, negative = inhibition) at 1uM” value: 9.5% for the first, 14.8% for the second.

Compared with `O=C(NCc1nc2ccccc2[nH]1)C1=C[C@@H](c2ccccc2)C[C@@H](OCCCCO)O1`, `CN=c1sc2ccccc2n1CC(O)COCc1ccco1` (stereo not drawn) is lower in “hERG current change (%, negative = inhibition) at 1uM” value: -9.02% for the first, -28.5% for the second.

Going from `COc1cccc(C(=O)NC2CCNCC2)c1` to `CCOc1cc(NC(=S)Nc2cccc(OC)c2)c(OCC)cc1NC(=O)C1CC1`, the “hERG current change (%, negative = inhibition) at 1uM” value falls from 11.9% to 10.4%.

First: Cc1ccc(NC(N)=S)cc1C
Second: CCC(CC)C(=O)NCCc1cc2c(OC)ccc(OC)c2[nH]c1=O
The “hERG current change (%, negative = inhibition) at 1uM” value of the first is higher: 12.5% for the first, -14.2% for the second.

Going from `CC1(CC(=O)NNC(=O)Nc2ccccc2)OCCCO1` to `O=C(COC(=O)C1CC2C=CC1C2)Nc1ccc2c(c1)OC(F)(F)O2` (stereo not drawn), the “hERG current change (%, negative = inhibition) at 1uM” value rises from -16.9% to 0.0753%.

Compared with `CN(C)/C=C(\C=O)c1c(Cl)cccc1Cl`, `COCCN(C(=O)CCC(=O)Nc1ccccn1)C(C(=O)NC(C)C)c1ccc(Cl)cc1` (stereo not drawn) is lower in “hERG current change (%, negative = inhibition) at 1uM” value: 19.7% for the first, 9.21% for the second.

First: Cn1c(NNC(=O)C2CCCCC2)cc(=O)n(C)c1=O
Second: CCOC(=O)C1CCCN(C(=O)c2ccccc2SCCOC)C1 (stereo not drawn)
The “hERG current change (%, negative = inhibition) at 1uM” value of the first is higher: 10.8% for the first, 6.87% for the second.

Going from `COc1ccc(C2C(C#N)=C(N)OC3=C2C(=O)CCC3)cc1Cn1nc(C)c([N+](=O)[O-])c1C` (stereo not drawn) to `Cc1ccc(C2=NNC3(CCOC(C)(C)C3)S2)cc1` (stereo not drawn), the “hERG current change (%, negative = inhibition) at 1uM” value rises from -1.87% to 0.551%.
